According to PubChem BioAssay AID686979 (National Center for Advancing Translational Sciences (NCATS), 2013):
“And” between values parts separate entries of the source, which are not always exact repeats. Equal values may be shown once. The campaign covered roughly 420,000 compounds. About 50,000 (12%) were called active. Inconclusive results, whose numbers are uncertain, are shown with a selection of clear calls. Calls come from the whole dose curve; as a rule, active = well fitted inhibition curve with a large enough effect; inconclusive = small, poorly fitted or top-dose-only effect; inactive = flat fitted curve, though single readings scatter. Where the call is inconclusive, the potency comes from a doubtful curve fit.

Experiment: qHTS for Inhibitors of human tyrosyl-DNA phosphodiesterase 1 (TDP1): qHTS in cells in presence of CPT; note: nearly all actives have a fitted effect of over 55% in size
Conditions: chicken DT40 Tdp1-/-;hTDP1 cells + 20 nM CPT, ATP luminescence, 48 h; activity change, negative = growth inhibition: at 46.2 µM (top of the series) unless noted
Procedure, shortened: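 Cell growth measured by CellTiter-Glo luminescence after a minimum 48 h, 37 C compound exposure with 20 nM CPT in Tdp1-knockout DT40 cells stably expressing hTDP1, seeded 400/well; qHTS titration format.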
% is set by controls: 0 for no effect and ±100 for the full control effect; potency is the fitted concentration of half-maximal effect; tags give direction and shape of the fitted curve.

| Compound | Potency | activity change, negative = growth inhibition |
| --- | --- | --- |
| COc1ccccc1CNC(=O)c1nnc(Cc2ccc(Cl)cc2)o1 | inconclusive: 16.4 µM [inhibitor, partial curve] | – |
| O=C1CC(N2CCc3ccccc32)C(=O)N1c1ccccc1 (stereo unspecified) | inactive | – |
| O=C(NCc1cccnc1)c1cccc(-c2cc3ccccc3oc2=O)c1 | inactive | – |
| Cc1cc(NC(=O)CCN2C(=O)C3C4C=CC(C4)C3C2=O)c2ccccc2n1 (stereo unspecified) | inconclusive: 29.1 µM [inhibitor, single point] | – |
| COCCCNC(=O)Cn1c(=O)n(CC(=O)NCCc2ccc(OC)c(OC)c2)c(=O)c2sccc21 | inactive | – |
| C/C(=N\NC(=O)c1ccc(CN2CCOCC2)cc1)c1ccc(NC(=O)c2ccccc2)cc1 | inconclusive: 18.4 µM [inhibitor, partial curve, poor fit] | – |
| COc1ccccc1NC(=O)COc1ccc(C(=O)OCC(=O)N(C(C)C)C(C)C)cc1OC | inconclusive: 25.9 µM [inhibitor, single point] | – |
| CSc1cccc(NC(=O)c2cc(S(=O)(=O)N3CCCC3)cn2C)c1 | inconclusive: 29.1 µM [inhibitor, single point] | – |
| O=C(CCCc1c[nH]c2ccccc12)NCCc1c[nH]c2ccccc12 | inconclusive: 29.1 µM [inhibitor, single point] | – |
| CC(C)NC(=O)C1(C)CSCC(=O)N1CCOc1ccccc1 (stereo unspecified) | inactive | – |
| C=CCNC(=O)c1ccc(CN(c2ccc(OCC)cc2)S(=O)(=O)c2ccc(C)cc2)cc1 | inconclusive: 23.1 µM [inhibitor, single point] | – |
| COc1ccc(S(=O)(=O)N2CCOC2CNC(=O)C(=O)NCCc2c[nH]c3ccccc23)cc1C (stereo unspecified) | active: 23.1 µM | – |
| CSc1cccc(NC(=O)Cn2c3ncccc3c(=O)n2-c2ccc(C)cc2)c1 | inconclusive: 29.1 µM [inhibitor, single point] | – |
| O=c1ccn([C@@H]2O[C@H](CNCc3ccccc3OCc3ccc(Cl)cc3Cl)[C@@H](O)[C@H]2O)c(=O)[nH]1 | active: 20.6 µM | – |
| Cc1cc(C(=O)CN2C(=O)C(=O)N(CC(C)C)C2=O)c(C)n1C1CC1 | inactive | – |
| CSCC[C@H](NC(=O)c1cccs1)C(=O)N1CCC2(CC1)NCCc1[nH]cnc12 | inactive | – |
| COc1ccc(CN2CCOc3ccc(CN4CCC(Oc5cccnc5)CC4)cc3C2)c(F)c1 | inconclusive: 29.1 µM [inhibitor, single point] | – |
| Cc1onc(-c2ccccc2)c1C(=O)N/N=C/C=C/c1ccccc1 | inconclusive: 29.1 µM [inhibitor, single point] | – |
| O=C(OCC1OC2C(Oc3nc(=O)ccn32)C1O)c1ccccc1 (stereo unspecified) | inactive | – |
| CC(C)(C)c1ccc(C(=O)N2CCCN(c3ccc([N+](=O)[O-])cn3)CC2)cc1 | inconclusive: 25.9 µM [inhibitor, single point] | – |
| COCCCNC(=O)c1cc(C(=O)c2ccccc2Br)c[nH]1 | inactive | – |
| CCOc1ccccc1NC(=O)COC(=O)c1cc(C(=O)OC)cc([N+](=O)[O-])c1 | inactive | – |
| Cn1c2ccccc2c(=O)c2cc(C#Cc3cccc(N)c3)ccc21 | inconclusive: 18.4 µM [inhibitor, single point] | – |
| CCc1c(-c2ccccc2)nc2ccccc2c1C(=O)NCCc1ccccc1 | inconclusive: 29.1 µM [inhibitor, single point] | – |

| Compound | Potency | activity change, negative = growth inhibition |
| --- | --- | --- |
| CC(C)c1ccc(NC(=S)N2CCN(Cc3ccccc3)CC2)cc1 | inconclusive: 29.1 µM [inhibitor, single point] | – |
| CC1=C(C(=O)c2ccccc2)C(c2ccc(O)cc2)NC(=S)N1 (stereo unspecified) | inactive | – |
| O=C(c1ccccc1)c1nc[nH]c1C(=O)Nc1ccccc1 | inconclusive: 20.6 µM [inhibitor, single point] | – |
| CC1Cc2ccccc2N1C(=S)NC(=O)c1ccco1 (stereo unspecified) | inconclusive: 16.4 µM [inhibitor, single point] | – |
| COc1ccc(CN(C)CC(=O)Nc2ccccc2C(=O)NC2CC2)cc1F | inconclusive: 20.6 µM [inhibitor, single point] | – |
| CCc1ccc(NC(=O)Cn2c(SC)nc3ccccc32)cc1 | inconclusive: 23.1 µM [inhibitor, single point] | – |
| COc1cc(NC(=O)CCc2nc(-c3cccs3)no2)cc(OC)c1OC | inconclusive: 14.6 µM [inhibitor, partial curve] and inconclusive: 18.4 µM [inhibitor, single point] | – |
| CNC(=S)N/N=C/c1ccccc1Cl | inconclusive: 29.1 µM [inhibitor, single point] | – |
| COc1ccc(C2C(O)C(c3c[nH]c4ccccc34)=NN2C(=O)CCl)cc1 (stereo unspecified) | active: 0.326 µM | – |
| Cc1noc(C)c1COC(=O)c1cc(S(=O)(=O)N2CCOCC2)ccc1F | inactive | – |
| Cc1c(C(=O)O)[nH]c2c1C(=O)CC(c1ccccc1)C2 (stereo unspecified) | inactive | – |
| CCOC(=O)C1CCN(C(=O)CCNS(=O)(=O)c2ccc3c(c2)CCN3C(=O)CC)CC1 | inactive | – |
| COc1ccc(-c2nc3c(C)cc(Br)cn3c2Cc2ccsc2)cc1OC | inconclusive: 29.1 µM [inhibitor, single point] | – |
| Cc1ccc2c(=O)cc(C(=O)Nc3cccc(Cl)c3C)oc2c1C | inactive | – |
| N#C/C(=C(/O)c1ccccc1F)c1nc2cc(C(F)(F)F)ccc2s1 | inconclusive: 18.4 µM [inhibitor, single point] | – |
| CCCCCC(O)(c1ccccc1)C(CN1CCOCC1)c1ccccc1 (stereo unspecified) | inconclusive: 29.1 µM [inhibitor, single point] | – |
| Cc1nc(Nc2ccccc2Cl)sc1C(=O)Nc1ccccc1 | active: 18.4 µM | – |
| CC(Sc1cccc[n+]1[O-])C(=O)Nc1ccc(Oc2ccccc2)cc1 (stereo unspecified) | inconclusive: 29.1 µM [inhibitor, single point] | – |
| CC12c3ccccc3C(c3ccccc31)C1C(=O)N(c3ccncc3)C(=O)C12 (stereo unspecified) | active: 16.4 µM | – |
| O=C(NC(=S)Nc1cc([N+](=O)[O-])ccc1O)c1cccnc1 | active: 20.6 µM | – |
| COc1c2ccoc2c(OCC=C(C)C)c2oc(=O)ccc12 | inconclusive: 16.4 µM [inhibitor, single point] | – |
| CCOC(=O)c1c(-c2ccc(OC)cc2)oc2c1C(OC(C)=O)CCC2 (stereo unspecified) | inconclusive: 29.1 µM [inhibitor, single point] | – |
| COc1cc(/C=C/C(=O)OCC(=O)Nc2cccc(F)c2)ccc1O | inconclusive: 0.206 µM [inhibitor, full curve, poor fit] | – |
| CO/N=C(\C(=O)N[C@@H]1C(=O)N2C(C(=O)OCOC(=O)C(C)(C)C)=C(/C=C\c3scnc3C)CS[C@H]12)c1csc(N)n1 | inactive | – |

| Compound | Potency | activity change, negative = growth inhibition |
| --- | --- | --- |
| Cc1cc(C)c(S(=O)(=O)N2CCN=C2c2ccccc2)cc1C | inactive | – |
| CCCCc1ccc(N=N/C(C(=O)Nc2cc(OC)c(NC(C)=O)cc2OC)=C(/C)O)cc1 | – | inconclusive: -21.7% [inhibitor] |
| Clc1cc(Cl)cc(Nc2ncnc(-n3cccc3)n2)c1 | inconclusive: 29.1 µM [inhibitor, single point] | – |
| CCCCC(Sc1nc(N)c(NC(=O)c2ccco2)c(=O)[nH]1)C(=O)O (stereo unspecified) | inactive | – |
| CCC(Oc1ccccc1)C(=O)Nc1ccsc1C(=O)OC (stereo unspecified) | inconclusive: 29.1 µM [inhibitor, single point] | – |
| COC(=O)c1c(-c2ccc(C)cc2)csc1N | inconclusive: 32.6 µM [inhibitor, single point] | – |
| CCCN1CCN(C(=O)CCCNC(=O)Cn2cnc3sc(C)c(C)c3c2=O)CC1 | inconclusive: 29.1 µM [inhibitor, single point] | – |
| CCOc1ccc([C@@H]2CC=C(C(=O)O)[C@H](c3cccc(Cl)c3)N2S(=O)(=O)c2ccc(C)cc2)cc1 | inconclusive: 16.4 µM [inhibitor, single point] | – |
| Cc1ccc(CNC(=O)c2cc3c(C)nc4ccccc4c3o2)cc1 | active: 9.2 µM | – |
| O=[N+]([O-])c1ccc(-c2nnc(CNC3CCCC3)o2)cc1 | inactive | – |
| COc1ccc(S(=O)(=O)N2CCCCCC2)cc1C(=O)N(C)CC(=O)Nc1ccccc1Br | inconclusive: 18.4 µM [inhibitor, single point] | – |
| O=S(=O)(c1ccc(Cl)c(C(F)(F)F)c1)N1CCN(CC(O)COCC2CCCO2)CC1 (stereo unspecified) | active: 20.6 µM | – |
| CCOc1ccc(S(=O)(=O)N2CCC(C(=O)N3CCN(c4ccccc4)CC3)CC2)cc1 | inconclusive: 29.1 µM [inhibitor, single point] | – |
| CN(C(=O)CSc1ncnc2scc(-c3ccccc3)c12)C1CCS(=O)(=O)C1 (stereo unspecified) | inactive | – |
| C=CCOc1ccc(C2OC34CCCCC3C(C#N)(C#N)C2(C#N)C(=N)O4)cc1 (stereo unspecified) | active: 13 µM | – |
| CC1(C)C=Cc2c(ccc3c2OC[C@H](c2ccc(O)cc2O)C3)O1 | active: 13 µM | – |
| Cn1c(=O)c2c(-c3ccccc3Cl)n(-c3cc(Cl)ccc3O)cc2n(C)c1=O | active: 20.6 µM | – |
| COc1ccc(NC2CCCN(C(=O)c3ccc4[nH]c(C)c(C)c4c3)C2)cc1 (stereo unspecified) | inconclusive: 29.1 µM [inhibitor, single point] | – |
| COC(=O)c1ccc(CSc2ncnc3c2sc2nc(N4CCOCC4)c4c(c23)CCCC4)o1 | inconclusive: 25.9 µM [inhibitor, single point] | – |
| Cc1ccc(C(=O)CC2(O)C(=O)N(CCc3ccccc3)c3ccc(Cl)cc32)cc1 (stereo unspecified) | active: 20.6 µM | – |
| Cc1nc2ccccc2n1CC(=O)NN | inactive | – |
| O=C(Nc1ccc(Cl)cc1)N1CCN(c2ncccn2)CC1 | inactive | – |
| COCCn1ccc2c(OCC(=O)Nc3cccc(OC)c3)cccc2c1=O | inconclusive: 29.1 µM [inhibitor, single point] | – |
